Some of the results follow.

This assay addresses T1, MBP-FoxP1dN (Mus musculus, UniProt P58462 326-579).
T1 sequence: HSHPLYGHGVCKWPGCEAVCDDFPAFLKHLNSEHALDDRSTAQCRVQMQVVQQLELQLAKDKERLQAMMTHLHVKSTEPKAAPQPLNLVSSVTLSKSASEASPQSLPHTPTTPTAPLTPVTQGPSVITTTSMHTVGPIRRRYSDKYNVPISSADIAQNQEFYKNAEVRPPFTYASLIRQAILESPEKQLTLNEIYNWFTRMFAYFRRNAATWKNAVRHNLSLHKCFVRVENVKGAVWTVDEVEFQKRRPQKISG
The experiment in a line: PD-seq (MBP pull-down with sequencing); 20 mM Tris-HCl pH 7.5, 100 mM NaCl, 1.5 mM MgCl2, 0.4 uM protein, 0.1 uM dsDNA library, 30 min, room temperature, amylose pull-down; high values mean tight binding. Particulars: protein: recombinant; tags: His6-MBP; chain copies: 2; dsDNA, one strand shown. Summed up: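 Mouse FoxP3 or FoxP1 fragment lacking the N-terminus, His6-MBP-tagged and expressed in E. coli, was incubated at 0.4 µM with 0.1 µM Klenow-filled degenerate double-stranded DNA library for 30 min at room temperature in Tris pH 7.5 buffer with NaCl and MgCl2. Complexes captured on amylose resin were washed three times and their DNA sequenced on Illumina. Binding is reads-per-million enrichment of pull-down over input, replicates pooled.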
Turning to “GATGATTGTTCTCCCAGCTGATGAATTTGGACCGTCGAGTAAACAAATTTTCCTAATCTTTCTGTTCAAGCGCCATCTAC”, the binding signal is 0.838 RPM ratio (pull-down/input).
In the case of “GATGATTGTTCTCCCAGCTGATGAATTACCCCCATCGAGTAAACAAATTTTCCTAATCTTTCTGTTCAAGCGCCATCTAC”, the binding signal is 1.01 RPM ratio (pull-down/input).
Regarding “GATGATTGTTCTCCCAGCTGATGAATTTGCTGTTTCGAGTAAACAAATTTTCCTAATCTTTCTGTTCAAGCGCCATCTAC”, the binding signal was 1.33 RPM ratio (pull-down/input).
Turning to “GATGATTGTTCTCCCAGCTGATGAATTATCCCATTCGAGTAAACAAATTTTCCTAATCTTTCTGTTCAAGCGCCATCTAC”, the binding signal is 0.957 RPM ratio (pull-down/input).
Under “GATGATTGTTCTCCCAGCTGATGAATTGCTTGACTCGAGTAAACAAATTTTCCTAATCTTTCTGTTCAAGCGCCATCTAC” stands 0.968 RPM ratio (pull-down/input); under “GATGATTGTTCTCCCAGCTGATGAATTCAGGGCGTCGAGTAAACAAATTTTCCTAATCTTTCTGTTCAAGCGCCATCTAC”, 0.838 RPM ratio (pull-down/input).
For the sequence “GATGATTGTTCTCCCAGCTGATGAATTTTAATACTCGAGTAAACAAATTTTCCTAATCTTTCTGTTCAAGCGCCATCTAC”, the binding signal was 0.974 RPM ratio (pull-down/input).
The value for “GATGATTGTTCTCCCAGCTGATGAATTGGACTCTTCGAGTAAACAAATTTTCCTAATCTTTCTGTTCAAGCGCCATCTAC” was 0.885 RPM ratio (pull-down/input); that for “GATGATTGTTCTCCCAGCTGATGAATTGAAAGATTCGAGTAAACAAATTTTCCTAATCTTTCTGTTCAAGCGCCATCTAC” was 0.861 RPM ratio (pull-down/input); that for “GATGATTGTTCTCCCAGCTGATGAATTAGACAGATCGAGTAAACAAATTTTCCTAATCTTTCTGTTCAAGCGCCATCTAC” was 0.93 RPM ratio (pull-down/input).
Under “GATGATTGTTCTCCCAGCTGATGAATTGCCGCGCTCGAGTAAACAAATTTTCCTAATCTTTCTGTTCAAGCGCCATCTAC” stands 0.893 RPM ratio (pull-down/input); under “GATGATTGTTCTCCCAGCTGATGAATTCATGACCTCGAGTAAACAAATTTTCCTAATCTTTCTGTTCAAGCGCCATCTAC”, 0.835 RPM ratio (pull-down/input); under “GATGATTGTTCTCCCAGCTGATGAATTCCGAGAGTCGAGTAAACAAATTTTCCTAATCTTTCTGTTCAAGCGCCATCTAC”, 0.749 RPM ratio (pull-down/input).
Under “GATGATTGTTCTCCCAGCTGATGAATTGTTGGAATCGAGTAAACAAATTTTCCTAATCTTTCTGTTCAAGCGCCATCTAC” stands 1.12 RPM ratio (pull-down/input); under “GATGATTGTTCTCCCAGCTGATGAATTCATTCGCTCGAGTAAACAAATTTTCCTAATCTTTCTGTTCAAGCGCCATCTAC”, 0.948 RPM ratio (pull-down/input).
Take “GATGATTGTTCTCCCAGCTGATGAATTGTCGGCTTCGAGTAAACAAATTTTCCTAATCTTTCTGTTCAAGCGCCATCTAC”: the binding signal was 0.881 RPM ratio (pull-down/input).
Take “GATGATTGTTCTCCCAGCTGATGAATTGCGGCGGTCGAGTAAACAAATTTTCCTAATCTTTCTGTTCAAGCGCCATCTAC”: the binding signal was 0.904 RPM ratio (pull-down/input).
The value for “GATGATTGTTCTCCCAGCTGATGAATTGTTACTTTCGAGTAAACAAATTTTCCTAATCTTTCTGTTCAAGCGCCATCTAC” was 1.52 RPM ratio (pull-down/input); that for “GATGATTGTTCTCCCAGCTGATGAATTCGCCCAGTCGAGTAAACAAATTTTCCTAATCTTTCTGTTCAAGCGCCATCTAC” was 0.817 RPM ratio (pull-down/input); that for “GATGATTGTTCTCCCAGCTGATGAATTAAGATGCTCGAGTAAACAAATTTTCCTAATCTTTCTGTTCAAGCGCCATCTAC” was 1.32 RPM ratio (pull-down/input).
As to “GATGATTGTTCTCCCAGCTGATGAATTGCGTCGGTCGAGTAAACAAATTTTCCTAATCTTTCTGTTCAAGCGCCATCTAC”, the binding signal is 0.962 RPM ratio (pull-down/input).
As to “GATGATTGTTCTCCCAGCTGATGAATTTCGTAGTTCGAGTAAACAAATTTTCCTAATCTTTCTGTTCAAGCGCCATCTAC”, the binding signal was 0.868 RPM ratio (pull-down/input).
The value for “GATGATTGTTCTCCCAGCTGATGAATTCCAACGTTCGAGTAAACAAATTTTCCTAATCTTTCTGTTCAAGCGCCATCTAC” was 0.849 RPM ratio (pull-down/input); that for “GATGATTGTTCTCCCAGCTGATGAATTATTTGTTTCGAGTAAACAAATTTTCCTAATCTTTCTGTTCAAGCGCCATCTAC” was 2.21 RPM ratio (pull-down/input); that for “GATGATTGTTCTCCCAGCTGATGAATTATGTCAATCGAGTAAACAAATTTTCCTAATCTTTCTGTTCAAGCGCCATCTAC” was 1.25 RPM ratio (pull-down/input).
Consider “GATGATTGTTCTCCCAGCTGATGAATTTAAGTACTCGAGTAAACAAATTTTCCTAATCTTTCTGTTCAAGCGCCATCTAC”, for which the binding signal is 0.985 RPM ratio (pull-down/input).
Under “GATGATTGTTCTCCCAGCTGATGAATTCCAACCATCGAGTAAACAAATTTTCCTAATCTTTCTGTTCAAGCGCCATCTAC” stands 0.882 RPM ratio (pull-down/input); under “GATGATTGTTCTCCCAGCTGATGAATTAGACGGCTCGAGTAAACAAATTTTCCTAATCTTTCTGTTCAAGCGCCATCTAC”, 0.845 RPM ratio (pull-down/input); under “GATGATTGTTCTCCCAGCTGATGAATTGTATCCGTCGAGTAAACAAATTTTCCTAATCTTTCTGTTCAAGCGCCATCTAC”, 0.976 RPM ratio (pull-down/input).
The value for “GATGATTGTTCTCCCAGCTGATGAATTGGGCACATCGAGTAAACAAATTTTCCTAATCTTTCTGTTCAAGCGCCATCTAC” was 1.01 RPM ratio (pull-down/input); that for “GATGATTGTTCTCCCAGCTGATGAATTCTACAGGTCGAGTAAACAAATTTTCCTAATCTTTCTGTTCAAGCGCCATCTAC” was 0.727 RPM ratio (pull-down/input).
